Experimental data from the supplement of paper PMC11417369.
This is one part of the list.

These sequences were tested on PfSIP2 AP2 domain 1 (GST-tagged) (assay: gcPBM binding intensity (ln(normalized median fluorescence intensity)); higher = stronger DNA binding).
In short: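 Probes on an Agilent 4 × 180k array were primer-extended, double-stranded and 36 bp long, taken from intergenic genomic regions, with negative controls added. GST-tagged P. falciparum DNA-binding domains from E. coli, about 25 μg on average, were applied to the array for 1 h in 1× PBS containing 1% milk, 0.2 mg/ml BSA, 0.5% salmon testes DNA and 0.03% Triton X-100. Binding intensity, obtained after Alexa488 anti-GST antibody detection and a 488 nm scan, is the highest Masliner-normalised natural-log median intensity across replicate spots of either probe orientation.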

Sequence	gcPBM binding intensity (ln)
TTTTTATGATTATACTTATATAATTTCATGATTGAA [CACACA_negctrl_site228]	6.78
AATACTTACCAAAATACACACACACCCAAAATATAT [CACACA_site8559]	7.21
ATTTTTATTTTATATACACACAATAATACTAGAATA [CACACA_site7810]	7.21
ATATATATCTACATATGTACATATATACATTACACA [XGTACX_site7210]	7.21
AGATATATAAAATATACACACAGTAATATTTATATA [CACACA_site6767]	6.88
ATTTCATATGGTCAACGTACTCATGCATCCCTCCTT [XGTACX_site437]	6.86
AATTATATTTGAAATACACACATAAAAACCATATAG [CACACA_site7598]	7.19
TCAAAAAAGACACACCGTACATACTATTTGGACAGG [XGTACX_site7699]	7
ATATATATATATATATGTACATATTTACATTTTGTA [XGTACX_site3529]	9.59
TATACACATTCGCGTTGTACAAAAAAAAAAAAAAAG [XGTACX_site2880]	7.14
AATAAAGGAGCCTATGAACACACACCGGTACATATA [CACACA_site9352]	6.65
ATAATAATAGTAATATGTACATATATATATATATAT [XGTACX_site7437]	9.47
ATAAAAAAAAGAAAAACACACACATATATATATATA [CACACA_site8243]	9.42
AAGATGAACCTTTACACATGCAACAAAAAATATACA [TGCATGCA_site166]	7.25
ATCAACATTATGTTTAGTACTTAGTGAATTGTTAAT [XGTACX_site4913]	6.93
GAATTTTTGACGATATAGGAAATAATTATCCTGAAG [XGTACX_negctrl_site61]	6.78
CTGTTAATTATATATTGTACAAAAGATATGATTATA [XGTACX_site6927]	7.03
AAATAAAGAATATAAATACACACTTAAATATATATT [CACACA_site4007]	6.73
ATTTATATATTTATATGTACATATCTATACATATAT [XGTACX_site7580]	7.19

Sequence	gcPBM binding intensity (ln)
TTTTTAAAAAAAAAAAAATAAAAAAAAAAAAAATAT [XGTACX_negctrl_site7]	6.76
ATAATAAAATAAATCACACATAATATAATGTAATAT [CACACA_site6144]	6.98
ACAAAAAAATAAAATATATATATATATATAATATAT [CACACA_negctrl_site805]	7.9
ATATATATATATATATGTACATATAATTTTTTTTTT [XGTACX_site6948]	9.47
TTTATATTAATTTGTGTAAATGCATATGATGAGCAT [XGTACX_negctrl_site254]	7
ATAACAATTATTTATCTACACACTTTTATGTTATTT [CACACA_site7886]	7.09
TAAATTTTTTTTTTGATGCACTTAGTTATTATATTT	8.14
AATGGCAAAATAGGCACACACACATATACAGATATA [CACACA_site4726]	7.02
ATTAAGTCTTATATTACACACGACATTGTAATGTAA [CACACA_site528]	6.76
AATTTTTTATACACAAGTACAAACGCGTAGTCACTT [XGTACX_site2458]	6.77
ATTCCACTGTTTTAGTGTACTGGTCGTTTTTTTTTT [XGTACX_site1738]	6.78
AAAAATAAAACAATTACACACATAATTTTATTTTTA [CACACA_site928]	6.86
TCCAAAATATCCTTCACACACGAACAGTTTCATTTA [CACACA_site5511]	6.89
AAAAAAATTCTTGGCGCACACACTTTAAAAATTAAA [CACACA_site597]	7.25
AAGGATTACAAAAAAAGTACAAATGGATTTTTTCCC [XGTACX_site8905]	6.84
CTTACAAATAAACAACGTACTTATTCGAATTATGCT [XGTACX_site2431]	6.92
CATACAGACGAACACACACACATATAAATATAAATA [CACACA_site6443]	7.27
AACCACATGGTGTAATGTACATTACCTTAACAATAA [XGTACX_site3055]	6.91
AAATATTATATATATACACACACACCGGCATGCACA [CACACA_site7916]	8.72

Sequence	gcPBM binding intensity (ln)
TATAATAAAATTGGTAGTACATTAATTTATGTATAG [XGTACX_site3059]	7
TATTATTTTTTTTTTTGTACATATATGTATATATAT [XGTACX_site8471]	7.51
AAATGCGCCATGTGTACACATATATATATATATATA [CACACA_site4649]	9.67
TACATATATAAAAATTGTACACTTCATAAGAAAAAA [XGTACX_site4347]	6.99
TTAAATAAGTTCTTCACACATATATATATATATATA [CACACA_site4742]	9.46
GTTTTAAAATTAAATATTATGGCATAATTCAAGAAA [GTGCAC_negctrl_site721]	7.01
AAAATTTTTTAACACTGTACTTGTAATATTAAAACT [XGTACX_site8369]	7.11
ATTCCCTTAAGAAACTGTACAAAACTTTCTTCGATT [XGTACX_site775]	6.97
GTGTGTGTATATATTTGTACATATATTTAAACATAT [XGTACX_site1074]	8.11
TATACATAAATTATATGTACTGAAAATACATAATTA [XGTACX_site3626]	6.94
GGTAGGTGGATATATACACACATATATTATAGATAT [CACACA_site7021]	7.28
CACAGATATATACATACACACATATATACACATATA [CACACA_site6323]	7.3
ATCGAGAAAAATAAAATAATACAATTTCTTTAAATA [XGTACX_negctrl_site162]	6.75
AAAAAAAAAAGAACCCGTACATAAATAATATATATA [XGTACX_site164]	7.48
TTTTTTTTTTCTTAGGTGCAAAAAATAAGTATATAT [GTGCAC_site9394]	10.1
TTTTTTTTGTATTAATGTACATATAACTTTTTTTTT [XGTACX_site7903]	6.84
TAAAAAATAAAATAATGTACATATGAATTATATATT [XGTACX_site8398]	6.94
AAAAAAAAAAAAGAAACACACACATTTGTATATAAT [CACACA_site8648]	6.93
GAAACATAAAAATATATTGAAATAGTATCATGGGTA [CACACA_negctrl_site352]	7.09
